The campaign covered roughly 150,000 compounds. About 540 (0.36%) showed an effect of 50% or more. Some of the results follow.

The test system of this assay is Plasmodium falciparum. Description: Primary screen in NF54 nanoGlo assay, in single point, at 2uM, 72h; a lower Z score goes with more inhibition. It is filed as functional, Erythrocyte. The note with it: timepoint 72 hour.
Turning to `Cc1ccc(OCC(=O)Nc2ccccc2C(F)(F)F)nc1`, the “% Inhibition” value was -23% and the Z score amounted to 4.66.
The corresponding values for `Cc1cnn(C2(C(=O)O)CCN(C(=O)[C@H](N)C3CCCCC3)CC2)c1` are -3% and 0.59.
The corresponding values for `CCc1nc(C(=O)Nc2cccc(S(=O)(=O)C3CCCC3)c2)co1` are -3% and 0.33.
The corresponding values for `Cc1cccc(CN(Cc2ccccn2)C[C@H]2CCOCO2)c1` are -8% and 0.67.
Consider `CC(C)(C)c1nnc(NCc2cc(C#N)cs2)o1`, for which the “% Inhibition” value was -14% and the Z score came to 1.38.
The corresponding values for `C[C@@H](Cc1ccc(OC(F)(F)F)cc1)C(=O)NCc1ncccn1` are -10% and 1.2.
The corresponding values for `CCC(=O)N1CC(n2cc(C(=O)NCC3CC3)nn2)C1` are -6% and 1.14.
In the case of `O=C(COc1ccc2ccccc2c1Br)N1CCCCCC1`, the “% Inhibition” value is -8% and the Z score turned out to be 1.03.
The corresponding values for `Cc1ccccc1NC(=O)NC1CCCC(OC(=O)Nc2ccccc2)C1` (stereo not drawn) are -5% and 0.88.
The corresponding values for `CC(C)(C)c1ccc(C(=O)N2CC[C@H](Oc3cc(C(F)(F)F)ccn3)C2)cc1` are -14% and 2.7.
For `Cc1ccc(C)c(S(=O)(=O)NCCO)c1`, the “% Inhibition” value was found to be 2% and the Z score is on record as -0.33.
In the case of `O=C(Cn1c(=O)cnc2cc(S(=O)(=O)N3CCCCC3)ccc21)NCc1ccco1`, the “% Inhibition” value is -12% and the Z score is recorded as 2.3.
The corresponding values for `Cc1nc(NC(=O)C[C@@H]2C=CCC2)sc1-c1ccccn1` are -13% and 1.14.
The corresponding values for `Cc1cc(Cl)cc(C#N)c1NC(=O)CCC(F)(F)F` are 5% and -1.01.
The corresponding values for `O=C(Nc1nc2c(s1)CCC2)c1cnc2ccccc2n1` are 2% and -0.29.
In the case of `C[C@H](NS(=O)(=O)Cc1ccc(Br)cc1)c1ccccn1`, the “% Inhibition” value is on record as -6% and the Z score worked out at 1.33.
In the case of `O=C(Nc1ccc(O)c(-c2nc3ccccc3s2)c1)c1ccc(Cc2ccccc2)cc1`, the “% Inhibition” value is given as -8% and the Z score is 1.33.
The corresponding values for `CCS(=O)(=O)N1CC(=O)N(c2ccc(Cl)cc2)[C@](C)(C(=O)NCc2ccc(F)cc2)C1` are -5% and 0.7.
`CN1CCCN(c2nc(C(F)(F)F)nc3cc4c(cc23)OCO4)CC1`: the “% Inhibition” value was -8% and the Z score came to 1.28.
Take `c1cc(OCCc2ccc3c(c2)CCO3)cc(-c2nnco2)c1`: the “% Inhibition” value is recorded as -10% and the Z score is listed as 1.02.
The corresponding values for `C[C@H]1C(=O)N(C)CCN1c1nc(C2CC2)ns1` are -13% and 1.66.
The corresponding values for `O=C(C1CCN(C2CCN(c3nc4ccccc4o3)CC2)CC1)N1CCc2[nH]ncc2C1` are -22% and 1.93.
The corresponding values for `Cc1ncc(C(=O)NCCCN(C)c2ccccc2)c(O)n1` are -1% and 0.08.
In the case of `COc1cccc(S(=O)(=O)N2CCN(C3CCCC3)CC2)c1`, the “% Inhibition” value is listed as -5% and the Z score came out at 0.58.
The corresponding values for `Cc1cccc(-c2ccccc2C(=O)N2CCN(C3CCN(C)CC3)CC2)c1` are -12% and 2.22.
The corresponding values for `Cc1ccc(C(=O)CCNc2ccc(C(=O)N3CCCCC3)cc2)cc1` are -17% and 1.96.
For `CCN1CC[C@@]2(CCC1=O)CN(Cc1c(C)ccc3ncccc13)CCN2C`, the “% Inhibition” value came out at 10% and the Z score is on record as -2.02.
The corresponding values for `Cc1ccc(C(=O)NC[C@H]2Cn3ccnc3CO2)cc1` are -1% and 0.07.
The corresponding values for `COc1ccccc1-c1nnc(CN2CCS(=O)(=O)C[C@@H]2C)o1` are -8% and 1.06.
The corresponding values for `c1ccc(O[C@H]2CCN(Cc3cnns3)C2)nc1` are -4% and 0.53.
Take `CCOc1ccc(NC(=O)c2ccccc2NC(=O)C2CCCC2)cc1`: the “% Inhibition” value is on record as -18% and the Z score is on record as 1.62.
The corresponding values for `O=c1[nH]nc(Cc2ccc(O)cc2)n1C1CCCCC1` are -2% and 0.36.
The corresponding values for `c1ccc(NCc2nc3c(o2)CCCC3)cc1` are -7% and 1.2.
The corresponding values for `O=C(CCN(c1nc(-c2ccco2)nc2ccccc12)C1CC1)N1CCOCC1` are -18% and 1.8.
As to `CN(C(=O)c1ccc(Oc2cccc(Cl)c2Cl)nc1)C1CCNCC1`, the “% Inhibition” value is listed as -11% and the Z score was found to be 1.6.
The corresponding values for `COCCOCCS(=O)(=O)Nc1ccc2oc(CO)cc2c1` are -6% and 0.63.
In the case of `COC(C)CS(=O)(=O)NCC1CC(c2ccc(C)c(C)c2)=NO1` (stereo not drawn), the “% Inhibition” value turned out to be 2% and the Z score was -0.2.
The corresponding values for `COCCN1CC[C@H](CN(C)S(=O)(=O)c2ccc3c(c2)OCCCO3)C1` are -3% and 0.49.
The corresponding values for `c1ccc(Cn2ccnc2CCNC(C2CC2)C2CC2)cc1` are -10% and 1.39.
The corresponding values for `CCn1c(C(=O)NC2CCCC2)cc2cc(S(=O)(=O)N(C)C)ccc21` are -4% and 0.71.
`O=C(C(=Cc1cn(-c2ccccc2)nc1-c1ccc2c(c1)OCCO2)c1nc2ccccc2s1)c1ccccc1`: the “% Inhibition” value is on record as -23% and the Z score is 3.68.
Consider `O=C1CCCCCN1Cc1ccccc1`, for which the “% Inhibition” value was -6% and the Z score was 0.75.
The corresponding values for `COCCn1cc(-c2cccc3c2CC(=O)N3)cn1` are 7% and -0.93.
The corresponding values for `O=C(c1cccc(F)c1)N1CCC(OCc2nc(C3CC3)no2)CC1` are -6% and 0.8.
In the case of `COc1ccc(CC(=O)N2CCN(c3cc(-n4nc(C)cc4C)ncn3)CC2)cc1`, the “% Inhibition” value is -12% and the Z score is given as 1.71.
The corresponding values for `c1ccc(CCCO[C@H]2CCN(c3ncnc4nc[nH]c34)C2)cc1` are -11% and 1.61.
As to `O=C1NC(C2CC2)(C2CC2)C(=O)N1Cc1nc(C2CC2)no1`, the “% Inhibition” value was found to be 31% and the Z score was -3.48.
The corresponding values for `Cc1ccc(C(=O)NCc2ccc(F)cc2)c(C2CCN(Cc3ccco3)CC2)n1` are -5% and 0.53.
The corresponding values for `C[C@@H](CNC(=O)c1ccsc1NC(=O)c1cccs1)CN1CCCCC1` are -9% and 1.62.
The corresponding values for `O=C(COCC(F)(F)C(F)F)NCCc1cnccn1` are -1% and 0.09.
In the case of `O=C(NCCCc1nc(-c2ccccn2)cs1)[C@@H]1COCCO1`, the “% Inhibition” value was -11% and the Z score is reported as 2.25.
In the case of `NC(=O)c1c(NC(=O)CN2CCCC3CCCCC32)sc2c1CCC2` (stereo not drawn), the “% Inhibition” value is given as -1% and the Z score came to 0.14.
For the compound `O=C(Nc1cc(-c2nnc3n2CCCCC3)ccc1F)c1nc(-c2ccccc2)n(-c2ccccc2)n1`, the “% Inhibition” value is reported as 9% and the Z score is listed as -1.97.
Consider `Cc1ccc(S(=O)(=O)c2c(NS(=O)(=O)c3ccc(Cl)cc3)n(-c3cc(C)cc(C)c3)c3nc4ccccc4nc23)cc1`, for which the “% Inhibition” value is on record as -6% and the Z score worked out at 0.5.
